# Test results published in publication PMC6919601, “Identification of Plasmodium dipeptidyl aminopeptidase allosteric inhibitors by high throughput screening” (PLoS ONE, 2019).
# The campaign covered roughly 110,000 compounds. About 230 (0.21%) showed an effect of 50% or more. Some of the results follow.
# Target: DPAP1 (Plasmodium falciparum, UniProt Q8IIJ9)
# Experiment: primary screen, percent inhibition; read by cleavage of a fluorogenic dipeptide substrate; higher = more effect of the substance
# Parameters: species or system P. falciparum D10 trophozoite lysates; single well
# 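Also: 30 min substrate incubation versus DMSO and 10 µM JCP410 controls.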
# Sequence of DPAP1 (Q8IIJ9 whole entry, looked up): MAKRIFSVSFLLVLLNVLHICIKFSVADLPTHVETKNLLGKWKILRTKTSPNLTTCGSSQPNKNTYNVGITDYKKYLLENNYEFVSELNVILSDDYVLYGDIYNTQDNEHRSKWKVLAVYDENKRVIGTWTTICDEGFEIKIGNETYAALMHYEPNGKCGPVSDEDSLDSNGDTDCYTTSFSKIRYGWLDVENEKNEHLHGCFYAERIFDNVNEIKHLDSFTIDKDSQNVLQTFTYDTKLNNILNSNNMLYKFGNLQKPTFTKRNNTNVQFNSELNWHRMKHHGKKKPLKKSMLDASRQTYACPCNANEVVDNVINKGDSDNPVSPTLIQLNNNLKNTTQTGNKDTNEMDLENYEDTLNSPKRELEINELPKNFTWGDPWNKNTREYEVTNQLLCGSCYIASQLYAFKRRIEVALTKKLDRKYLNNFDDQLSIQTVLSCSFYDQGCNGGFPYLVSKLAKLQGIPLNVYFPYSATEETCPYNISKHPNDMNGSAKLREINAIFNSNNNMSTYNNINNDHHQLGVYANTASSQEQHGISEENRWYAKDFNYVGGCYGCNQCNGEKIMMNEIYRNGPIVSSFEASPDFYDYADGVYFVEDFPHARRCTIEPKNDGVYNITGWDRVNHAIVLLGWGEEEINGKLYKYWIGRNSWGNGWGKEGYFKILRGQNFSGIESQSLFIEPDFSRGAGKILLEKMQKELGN
row,SMILES,% Inhibition @ 10 uM [%]
1,CCC[C@H](NC(=O)C1(NC(=O)c2ccc([N+](=O)[O-])cc2)CCCCC1)C(=O)c1nc2ccccc2o1,1.7
2,CC(NC(N)=O)C12CC3CC(CC(C3)C1)C2 (centres unmarked),-7.55
3,Cc1nc2sccn2c(=O)c1S(=O)(=O)Nc1ccc(Br)cn1,-1.68
4,C/C=C1/N=C(S)NN=C1CC,18.9
5,N#CC1=C(N)Oc2cc(N)ccc2C1c1ccc(OCc2ccccc2)cc1 (centres unmarked),1.37
6,COc1ccccc1-n1c(C)cc(/C=C2/C(=N)N3C(c4ccccc4)=CSC3=NC2=O)c1C,0.351
7,Cc1ccc(OCC(=O)Nc2ccc(F)cc2)cc1,5.29
8,Cn1nc(-c2ccc(Cl)cc2)c2cc(C(=O)NCc3cccnc3)sc21,-7.14
9,c1ccc2c(c1)nnn2CN1CCCCCC1,1.76
10,Fc1ccc(N2CCN(Cc3ccccc3F)CC2)cc1,-0.192
11,COc1ccc(NC(=O)c2cnccn2)c(OC)c1,0.316
12,N#Cc1cc2c(=O)n3ccccc3nc2n(Cc2cccnc2)c1=N,1.97
13,CS(=O)(=O)N(CC(=O)N1CCc2ccccc2C1)c1cccc(Br)c1,1.65
14,O=C(NCCc1ccccc1)C(=O)c1c(O)[nH]c2ccccc12,-3.46
15,Nc1ccc2c(c1)C1C=CCC1C(c1ccc(Cl)cc1Cl)N2 (centres unmarked),2.16
16,O=C(Cn1cccc1)N1CCN(Cc2ccccc2)CC1,2.6
17,CCOCCCNC(=O)C1CCCN(c2nnc(C)c3c(C)n(-c4ccc(C)cc4)nc23)C1 (centres unmarked),-3.05
18,Cc1ccc2[nH]c3c(c2c1)CCCC3O (centres unmarked),-1.69
19,COc1ccccc1NC(=O)c1cnc(Nc2nc3ccccc3o2)nc1C,-4.12
20,Cc1nc2ccccc2c(O)c1CN1CC(C)OC(C)C1 (centres unmarked),-2.3
21,COc1nc(NC(C)(C)C)nc(OC)n1,-0.693
22,CCCN(CCC)S(=O)(=O)c1ccc(NC(=O)C(C)(C)C)cc1,-0.496
23,Fc1ccccc1CNCCc1c[nH]c2ccccc12,1.63
24,Cc1cc(Br)c(S(=O)(=O)C(C)(C)C)c(Br)c1,1.8
25,CC(C)(C)c1cc(SCCC#N)cc(C(C)(C)C)c1O,-5.35
26,Nc1c(C(=O)NCCc2ccccc2Cl)sc2nc(-c3ccncc3)ccc12,0.0719
27,COC(=O)c1ccc(-c2ccco2)n1Cc1nc(-c2ccccc2F)oc1C,2.84

row,SMILES,% Inhibition @ 10 uM [%]
1,Cc1cc(OCC(=O)NCc2ccc3c(c2)OCO3)cc(C)c1Cl,-12
2,Cc1ccnc(NC(=O)c2cn(C3CCCC3)c(=O)c3c2c2ccccc2n3C)c1,-3.39
3,COc1ccc(C2C3=C(O)CCCC3=Nc3[nH]nc(-c4ccccc4)c32)cc1 (centres unmarked),0.244
4,CC1=CSC2=NC(=O)/C(=C\c3coc4ccccc4c3=O)C(=N)N12,2.74
5,O=C(O)C1CCN(c2nc(-c3ccc(F)cc3)cs2)CC1,-0.185
6,COc1ccc2ncc(S(=O)(=O)c3ccccc3)c(N3CCCCC3C)c2c1 (centres unmarked),-5.54
7,O=C(CCc1nnc2n(Cc3ccccc3)c(=O)c3ccccc3n12)N1CCN(c2ncccn2)CC1,-2.42
8,CCOc1ccc(-c2cc(NC(=O)c3noc4c3CCCCC4)on2)cc1OCC,2.42
9,CCC1CCCCN1C1CCN(CCc2ccccc2)CC1 (centres unmarked),0.565
10,CCc1ccc(C(=O)CC2(O)C(=O)Nc3ccc(CC)cc32)cc1 (centres unmarked),2.49
11,N#CC1C(=S)N=C2CCCCC2=C1c1cccs1 (centres unmarked),40.5
12,CN(CCCNc1cnnc2c(Cl)cccc12)Cc1ccccc1,-4.4
13,Cc1ccccc1C(=O)NCCc1ccccc1,-3.27
14,O=C(CSc1nnc(COc2ccccc2)o1)N1CCCC1,2.42
15,COc1cc(OC)cc(C(=O)Nc2ccccc2OC)c1,4.42
16,Cc1ccc(C2=NS(=O)(=O)N(C)C(C(=O)Nc3cc(C)n(CC(=O)NCc4ccco4)n3)=C2)cc1,-2.84
17,CN(C)CCN(Cc1ccccc1)Cc1ccc(O)cc1,-4.14
18,COC(=O)c1cc2c(s1)-c1ccccc1OC2,10.3
19,CCCCOc1ccc(-c2nc(/C=N/Cc3ccccc3)c(O)o2)cc1,-2.54
20,COc1ccc(C(=O)C2=C(O)C(=O)N(CCN3CCOCC3)C2c2cccnc2)cc1OC (centres unmarked),-7.19
21,COc1ccc2cc3c(N)nn(C(=O)CSc4ccncc4)c3nc2c1,1.38
22,CCc1ccc2oc(C(=O)NCc3ccc4c(c3)OCO4)cc(=O)c2c1,-5.08
23,Cc1nnc(N2CCCC(C(=O)NCCN3CCOCC3)C2)c2nn(-c3ccccc3)c(C)c12 (centres unmarked),-0.518
24,CS(=O)(=O)N(CC(=O)NCc1ccncc1)c1cccc2ccccc12,-1.38
25,Nc1c(C(=O)O)ccc2c1C(=O)c1ccccc1C2=O,0.912
26,COCCN1C(=O)c2ccccc2C(C(=O)NCC2CCCO2)C1c1cccs1 (centres unmarked),3
